This is an account of results in patent publication US7144862B2, “Orally administered peptides to ameliorate atherosclerosis” (The Regents of the University of California, priority 2000, dated 2006).

Non-standard residues stand in square brackets, D forms with d. Residues, ends and D or L forms follow the SMILES beside them.

In this experiment the test system is human artery wall cell cocultures. As to the kind of experiment: Lipoproteins from mice given peptide by gavage tested in human artery wall cell cocultures (monocyte chemotactic activity). Conditions: 50 micrograms by gavage. How it is done:
Groups of LDL receptor-deficient mice (n=3) were administered the D-peptides or the saline vehicle by gavage. Each animal was given 100 μl of saline, 100 μg/100 μl of peptide D-2F or peptide D-37pA. Blood was collected from retroorbital sinus under mild anesthesia 17 hrs later. LDL was isolated from plasma by FPLC. Cocultures of artery wall cells were incubated with medium alone (NO ADDITION), control LDL from normal subjects (LDL), LDL plus control HDL from normal subjects (+HDL). Other cocultures were incubated with murine LDL following gavage with saline (SALINE LDL), with D-2F (D-2F LDL) or with D-37pA peptide (D-37pA LDL). […] This conditioned medium was collected and analyzed for monocyte chemotactic activity. […]
FIG. 22A: Peptides L-4F and D-4F were radiolabeled using the Iodo-bead reagent and were administered by oral gavage to LDL receptor null mice (100 μl of saline containing 100 μg of unlabeled peptide plus ^125I-labeled peptide with specific activity of 11×10^6 cpm per μg peptide per animal, n=3). Blood was collected after 4 hrs, plasma was separated, delipidated and analyzed by reverse phase HPLC as described herein. […] On the right, mouse LDL (mLDL) was isolated from mice receiving saline (Saline Rx) or L-4F (L4F Rx) or D-4F (D-4F Rx) and was added at 100 μg cholesterol/ml to the artery wall cell cocultures without HDL and monocyte chemotactic activity determined. […]

Regarding `CC(=O)N[C@H](CC(=O)O)C(=O)N[C@H](Cc1c[nH]c2ccccc12)C(=O)N[C@H](CC(C)C)C(=O)N[C@H](CCCCN)C(=O)N[C@H](C)C(=O)N[C@H](Cc1ccccc1)C(=O)N[C@H](Cc1ccc(O)cc1)C(=O)N[C@H](CC(=O)O)C(=O)N[C@H](CCCCN)C(=O)N[C@@H](C(=O)N[C@H](Cc1ccccc1)C(=O)N[C@H](CCC(=O)O)C(=O)N[C@H](CCCCN)C(=O)N[C@H](Cc1ccccc1)C(=O)N[C@H](CCCCN)C(=O)N[C@H](CCC(=O)O)C(=O)N[C@H](Cc1ccccc1)C(=O)N[C@H](Cc1ccccc1)C(N)=O)C(C)C` [Peptide D-5F, Ac-D-W-L-K-A-F-Y-D-K-V-F-E-K-F-K-E-F-F-NH2] (Ac-[dD][dW][dL][dK][dA][dF][dY][dD][dK][dV][dF][dE][dK][dF][dK][dE][dF][dF]-NH2), the “protection of control LDL by mouse HDL” value is recorded as “as protective against LDL-induced monocyte chemotactic activity production by human artery wall cells as a control HDL” (HDL taken after 3 hours) and “did not protect control (cont.) LDL from modification” (LDL receptor knockout mice, HDL taken 1.5 hours after gavage).
